PubChem BioAssay AID1476 (National Center for Advancing Translational Sciences (NCATS), 2009)
In all, about 200,000 compounds went through this assay and about 4,500 (2.2%) were called active. The inconclusive results got no clear call from the source; some entries with a clear call stand among them for comparison. Calls follow the shape of the dose curve; as a rule, active = well fitted inhibition curve with a large enough effect; inconclusive = small, poorly fitted or top-dose-only effect, or effect the other way; inactive = flat fitted curve, though single readings scatter. Potencies beside an inconclusive call are fits to weak or partial responses and may not hold up.

biological target: Cruzipain (Trypanosoma cruzi) (UniProt P25779); assay: qHTS Assay for Promiscuous and Specific Inhibitors of Cruzain (without detergent); settings: purified cruzain, Z-FR-AMC fluorescence, no detergent; also: nearly all actives have a fitted effect of over 40% in size;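 as to max response, negative = inhibition: plate controls were enzyme without inhibitor for no effect and buffer without enzyme for full effect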
Method in brief: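 Detergent-free condition (0.00005% Triton X-100) in acetate buffer pH 5.5 with DTT. 1.5 nM enzyme and compound were pre-mixed 15 min, then 2 uM Z-FR-AMC substrate added; reaction progress from fluorescence change between first and third reads (60 s).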
Potency is read from the fitted curve at half-maximal effect; tags tell the direction and shape of the fitted curve.

Chain of UniProt P25779 (P25779 whole entry, looked up): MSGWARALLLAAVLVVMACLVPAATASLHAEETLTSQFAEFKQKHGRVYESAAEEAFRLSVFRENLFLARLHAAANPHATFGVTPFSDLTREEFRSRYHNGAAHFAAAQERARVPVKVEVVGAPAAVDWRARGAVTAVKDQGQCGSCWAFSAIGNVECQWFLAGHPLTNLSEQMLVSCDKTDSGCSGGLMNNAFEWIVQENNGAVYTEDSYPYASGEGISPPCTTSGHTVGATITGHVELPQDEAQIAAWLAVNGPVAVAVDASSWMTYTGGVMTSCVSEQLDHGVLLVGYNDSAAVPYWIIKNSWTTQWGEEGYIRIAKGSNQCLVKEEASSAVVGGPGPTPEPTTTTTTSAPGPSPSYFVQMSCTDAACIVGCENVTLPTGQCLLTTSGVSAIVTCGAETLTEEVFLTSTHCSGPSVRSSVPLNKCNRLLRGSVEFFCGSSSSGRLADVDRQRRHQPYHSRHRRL

Row | SMILES | max response, negative = inhibition | Potency
1 | Cc1cccc(OCC(=O)Nc2ccccc2OCc2cc(=O)n3ccccc3n2)c1 | inactive: -4.06% | –
2 | Cc1c(C)n(C(=O)CSc2nc3ccccc3[nH]2)c2ccccc12 | – | inconclusive: 39.8 µM [inhibitor, single point]
3 | Cc1ccc(C(=O)N/C(=C/c2ccc(Cl)cc2)C(=O)Nc2cccc(C(=O)O)c2)cc1 | – | inconclusive: 39.8 µM [activator, single point]
4 | Nn1cc(-c2ccccc2)nc1SCC(=O)N1CCN(S(=O)(=O)c2ccc(Cl)cc2)CC1 | – | inconclusive: 39.8 µM [activator, single point]
5 | CC(/C=C1\N=C(SCc2ccccc2)SC1=O)=C\c1ccccc1 | – | inconclusive: 39.8 µM [inhibitor, single point]
6 | COc1ccc(O)c(/C=N/NC(=O)c2ccc(CSc3nc(C)cc(C)n3)cc2)c1 | inactive: 7.32% | –
7 | COc1cc(S(=O)(=O)N2CCOCC2)ccc1NC(=O)COC(=O)CC12CC3CC(CC(C3)C1)C2 | – | inconclusive: 31.6 µM [activator, partial curve]
8 | CCC(C)C(=O)O[C@H]1C[C@@H](C)C=C2C=C[C@H](C)[C@H](CC[C@@H]3C[C@@H](O)CC(=O)O3)C21 (some centres not stated) | – | inconclusive: 20 µM [activator, full curve]
9 | COc1ccc(C2/C=C\CC(NC(=O)OCC3c4ccccc4-c4ccccc43)CC(=O)N2Cc2cccc(F)c2)cc1 (configuration not stated) | – | inconclusive: 22.4 µM [inhibitor, single point]
10 | CCc1cccc(NC(=O)C2CCCN(S(=O)(=O)c3cccs3)C2)c1 (configuration not stated) | inactive: -7.35% | –
11 | CCn1cc(C(=O)N2CCN(c3ccc(F)cc3)CC2)c(=O)c2cc(S(=O)(=O)N(C)C3CCCCC3)ccc21 | – | inconclusive: 3.98 µM [activator, single point]
12 | COc1ccc(C2=NC(c3ccncc3)=Nc3ccc(Br)cc3N2)cc1 | inactive: 11.4% | –
13 | CCOC(=O)C1CCCCN1S(=O)(=O)c1csc(C(N)=O)c1 (configuration not stated) | inactive: 5.66% | –
14 | OCCNc1nc(C2CC2)nc2c1nnn2Cc1ccccc1Cl | – | inconclusive: 20 µM [activator, single point]
15 | COc1cc(C(c2c(C)[nH][nH]c2=O)c2c(C)[nH][nH]c2=O)ccc1OC(=O)c1cccc(C)c1 | – | inconclusive: 31.6 µM [activator, single point]
16 | COc1ccc(S(=O)(=O)c2c(C)c(NS(=O)(=O)c3ccccc3)cc(C)c2O)cc1 | – | inconclusive: 25.1 µM [inhibitor, single point]
17 | COc1ccc(Cn2cc(C(=O)c3ccc(C)cc3)c(=O)c3cc(OC)c(OC)cc32)cc1 | – | inconclusive: 39.8 µM [activator, single point]
18 | COc1ccc(/C=N/NC(=O)c2cccc([N+](=O)[O-])c2)cc1OC(=O)c1ccc(C)cc1 | inactive: -20.1% | –
19 | CCCC(CCC)C(=O)Nc1cc(-c2cn3cccnc3n2)ccc1OC | inactive: -6.86% | –
20 | O=C(Nc1ccc(Br)cc1)C1CCN(c2ncccn2)CC1 | inactive: -14.5% | –
21 | CN(C)S(=O)(=O)N1CCN(CC(O)COc2ccc3cc(Br)ccc3c2)CC1 (configuration not stated) | – | inconclusive: 25.1 µM [activator, single point]

Row | SMILES | max response, negative = inhibition | Potency
22 | c1cc2cc(c1)C[n+]1ccc(c3ccccc31)NCc1ccc(cc1)CNc1cc[n+](c3ccccc13)C2 | – | inconclusive: 10 µM [inhibitor, single point]
23 | O=C1CN(C(=O)COc2ccc(Cl)cc2)C(c2ccc(F)cc2)c2cc(Cl)ccc2N1 (configuration not stated) | – | inconclusive: 39.8 µM [inhibitor, single point]
24 | O=C(N/N=C/c1cn(-c2ccccc2)nc1-c1cccs1)c1ccncc1 | – | inconclusive: 31.6 µM [activator, single point]
25 | CCOC(=O)N1CCN(C(=O)c2ccc3c(c2)N(Cc2cccc(Cl)c2)C(=O)c2ccccc2S3=O)CC1 (configuration not stated) | – | inconclusive: 31.6 µM [activator, single point]
26 | CC(=O)c1ccc(C(=O)N(Cc2cccnc2)c2nc3c(C)c(C)ccc3s2)cc1 | – | inconclusive: 31.6 µM [activator, single point]
27 | CC12CCC(C(=O)Nc3cccc(NC(=O)C45CCC(C)(C(=O)O4)C5(C)C)n3)(OC1=O)C2(C)C | – | inconclusive: 25.1 µM [activator, single point]
28 | Cc1c(Cl)cccc1NS(=O)(=O)c1ccc(NS(=O)(=O)c2ccc3c(c2)OCCO3)cc1 | inactive: -26.2% | –
29 | COc1ccc(Cl)cc1NC(=O)c1cnc(N2CCCCC2)c2ccccc12 | inactive: -2.9% | –
30 | O=S(=O)(c1ccccc1)N1CCC2(CCCN(c3cccc(-c4ccccc4)c3)C2)CC1 | – | inconclusive: 12.6 µM [inhibitor, single point]
31 | CCOc1ccc(N(C)S(=O)(=O)c2ccc3[nH]cc(C(=O)NCC4CCCO4)c(=O)c3c2)cc1 (configuration not stated) | – | inconclusive: 31.6 µM [activator, single point]
32 | COC(=O)c1nc2n(n1)C(c1cc(OC)ccc1OC)C=C(c1ccc(Br)cc1)N2 (configuration not stated) | – | inconclusive: 39.8 µM [activator, single point]
33 | NCC(=O)NC1(C(=O)O)CCCC1 | inactive: 1.12% | –
34 | N=C1S/C(=C\c2ccccc2)C(=O)N1c1ccc(F)cc1 | – | active: 25.1 µM
35 | N=c1c2c(ncn1Cc1ccco1)Oc1c(ccc3ccccc13)C2c1ccccc1 (configuration not stated) | – | inconclusive: 39.8 µM [inhibitor, single point]
36 | O=C(COC(=O)[C@@H]1CC(O)CN1S(=O)(=O)c1ccccc1[N+](=O)[O-])Nc1ccc2ccccc2c1 (some centres not stated) | – | inconclusive: 31.6 µM [activator, single point]
37 | Cc1ccc2occ(CC(=O)Nc3ccc(Cl)c(C(F)(F)F)c3)c2c1 | inactive: -1.41% | –
38 | CN(C(=O)c1ccc2c(c1)N(Cc1ccc(F)cc1)C(=O)c1ccccc1S2(=O)=O)C1CCCCC1 | inactive: 18.9% | –
39 | Cc1ccc(C(=O)COC(=O)c2cn(-c3ccccc3)nc2-c2ccccc2)cc1[N+](=O)[O-] | – | inconclusive: 39.8 µM [inhibitor, single point]
40 | CCn1c(SCC(=O)Nc2nc3ccccc3s2)nnc1-c1ccc(OC)cc1 | – | inconclusive: 39.8 µM [inhibitor, single point]
41 | Cc1cc(=O)[nH]c(/N=C(\N)Nc2ccc(Cl)cc2)n1 | inactive: -7.86% | –
42 | COc1ccc(N2C(=O)CCSC23C(=O)N(Cc2ccc(F)cc2)c2ccccc23)cc1 (configuration not stated) | inactive: 6.46% | –

Row | SMILES | max response, negative = inhibition | Potency
43 | Fc1cccc2sc(Nc3nc4cc5c(cc4s3)OCO5)nc12 | – | inconclusive: 31.6 µM [inhibitor, single point]
44 | CSc1nc2ccc(NS(=O)(=O)c3c(Cl)cccc3Cl)cc2s1 | – | inconclusive: 39.8 µM [inhibitor, single point]
45 | Cc1ccc(CCNC(=O)CCn2nc(-c3ccc(Cl)cc3)ccc2=O)cc1 | inactive: 16.8% | –
46 | CCOC(=O)c1[nH]c2c(c1-c1ccc(OC)cc1)C(=O)CC(c1ccc(OC)c(OC)c1)C2 (configuration not stated) | – | inconclusive: 39.8 µM [activator, single point]
47 | CCc1cc(C(=O)NCCN(C)C)cs1 | inactive: -4.97% | –
48 | CCCN(CCC)C(=O)C1CCCN(S(=O)(=O)c2cc(Br)cc3c2N(C(=O)CC)CC3)C1 (configuration not stated) | – | inconclusive: 31.6 µM [activator, single point]
49 | O=C(CCS(=O)(=O)c1ccccc1)Nc1ccc(-c2nc3ccccc3s2)c(O)c1 | – | active: 10 µM
50 | O=C(NCCCO)/C(=C\c1cn(-c2ccccc2)nc1-c1cccnc1)NC(=O)c1ccccc1 | – | inconclusive: 39.8 µM [activator, single point]
51 | CC(C)c1ccc(NC(=O)COC(=O)/C=C/c2cccc(Br)c2)cc1 | – | inconclusive: 25.1 µM [inhibitor, partial curve, poor fit]
52 | COC(=O)c1sccc1S(=O)(=O)N(CC(=O)Nc1ccc(C)c(F)c1)c1ccc(C)c(C)c1 | – | inconclusive: 31.6 µM [inhibitor, single point]
53 | Cc1onc(-c2ccccc2Cl)c1C(=O)Nc1cccc(-c2nc3ncccn3c2C)c1 | – | inconclusive: 31.6 µM [activator, partial curve]
54 | CC1CCN(S(=O)(=O)c2ccc(Cl)cc2Br)CC1 | – | inconclusive: 3.98 µM [inhibitor, single point]
55 | O=C1C(Cl)=C(NC2CCc3ccccc32)C(=O)c2ncccc21 (configuration not stated) | – | inconclusive: 39.8 µM [inhibitor, single point]
56 | Cc1cccc(C)c1OCc1nnc(SCC(=O)Nc2nccs2)n1-c1ccccc1 | – | inconclusive: 39.8 µM [inhibitor, single point]
57 | COc1cc(NC(=O)C(NS(=O)(=O)c2ccc3c(c2)CCCC(=O)N3)C(C)C)cc(OC)c1 (configuration not stated) | – | inconclusive: 1 µM [inhibitor, single point]
58 | NCCSC(c1ccccc1)c1ccccc1 | inactive: -1.33% | –
59 | COc1ccc(/C=C2\CCCC(C(=O)C(F)(F)F)=C2O)cc1 | – | inconclusive: 3.98 µM [inhibitor, partial curve, poor fit]
60 | CCOc1ccc(S(=O)(=O)c2c(C(=O)c3ccc(C)c(C)c3)cnc3ccccc23)cc1 | – | active: 20 µM
61 | Cc1ccc(CNC(=O)CCc2nnc3n(C)c(=O)c4sccc4n23)cc1 | inactive: 0.0941% | –
62 | CC[C@]1(O)C[C@@H]2CN(CCc3c([nH]c4ccccc34)[C@](C(=O)OC)(c3cc4c(cc3OC)N(C)[C@H]3[C@](O)(C(=O)OC)[C@@H](C(=O)OC)[C@@]5(CC)C=CCN6CC[C@@]43[C@@H]65)C2)C1 | inactive: -3.38% | –
